According to the supplement of paper PMC4604168 (melanoma cell lines):
This is one part of the list. Single values are uncertain, as repeats are few or missing.

Tests used:
Test in all cases: cell count relative to DMSO control; melanoma cells; higher = more viable cells
Details in all cases: library dose: low library concentration; 72 h
[1] = test system: MZ2-MEL
[2] = test system: MeWo
[3] = test system: RPMI7951
[4] = test system: RVH-421
[5] = test system: SkMel28
[6] = test system: SkMel2
[7] = test system: SkMel30
[8] = test system: SkMel5
[9] = test system: UACC257
[10] = test system: UACC62
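Further: cell number obtained by counting DAPI-stained nuclei in high-throughput microscope images with image analysis software, screen run in 1,536-well plates.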

| Structure (SMILES) | cell count [1] [%] | cell count [2] [%] | cell count [3] [%] | cell count [4] [%] | cell count [5] [%] | cell count [6] [%] | cell count [7] [%] | cell count [8] [%] | cell count [9] [%] | cell count [10] [%] |
| --- | --- | --- | --- | --- | --- | --- | --- | --- | --- | --- |
| O=C(O)c1ccc2c(c1)nc(Nc1cccc(Cl)c1)c1ccncc12 + Cc1ccc(NC(=O)c2cccc(N(C)C)c2)cc1NC(=O)c1ccc(O)cc1 [ZM336372] (first compound 0.4 µM, partner dose 2 µM) | 74.3 | 88.9 | 67.9 | 83.9 | 106 | 98.6 | 76 | 111 | 98.5 | 90.6 |
| O=C(Nc1cc(C(F)(F)F)cc(C(F)(F)F)c1)c1cc(Cl)ccc1O + O=C(O)c1ccc(-c2c[nH]c3ncc(-c4ccccc4)cc23)cc1C1CCCC1 [GSK650394] (first compound 0.016 µM, partner dose 0.16 µM) | 94.4 | 85.6 | 86.3 | 95.7 | 85.6 | 96.3 | 94.3 | 87.8 | 63.6 | 82.3 |
| Cn1nnc2c(C(N)=O)ncn2c1=O [temozolomide] + O=C(CCCCCCC(=O)Nc1ccccc1)NO [vorinostat] (first compound 2 µM, partner dose 0.08 µM) | 98.1 | 104 | 87.6 | 92.9 | 69.1 | 106 | 103 | 101 | 88 | 86.1 |
| Cn1nnc2c(C(N)=O)ncn2c1=O [temozolomide] + NCC(=O)Nc1ccc(-n2nc(C(F)(F)F)cc2-c2ccc3c(ccc4ccccc43)c2)cc1 [OSU03012] (first compound 2 µM, partner dose 1 µM) | 85.6 | 53.7 | 99.1 | 103 | 75.2 | 64.2 | 44.4 | 83.3 | 128 | 86.1 |
| O=C(O)[C@@H]1[O][Sb](=[O])([O][Sb]2(=[O])[O][C@H]([C@H](O)CO)[C@H](O)[C@H](C(=O)O)[O]2)[O][C@H]([C@H](O)CO)[C@@H]1O (stereo not given in full) [stibogluconate] + CN(NC(=O)CC(=O)NN(C)C(=S)c1ccccc1)C(=S)c1ccccc1 [STA4783] (first compound 2 µM, partner dose 0.006 µM) | 108 | 105 | 91.2 | 99.2 | 86.6 | 106 | 101 | 106 | 95.9 | 102 |
| O=C(Nc1cc(C(F)(F)F)cc(C(F)(F)F)c1)c1cc(Cl)ccc1O + CN(C)S(=O)(=O)c1ccc2c(c1)/C(=C/c1cc3c([nH]1)CCCC3)C(=O)N2 [SU6656] (first compound 0.016 µM, partner dose 0.4 µM) | 106 | 81.9 | 106 | 104 | 77.1 | 97.7 | 58.8 | 86.3 | 103 | 69.2 |
| O=C(O)[C@@H]1[O][Sb](=[O])([O][Sb]2(=[O])[O][C@H]([C@H](O)CO)[C@H](O)[C@H](C(=O)O)[O]2)[O][C@H]([C@H](O)CO)[C@@H]1O (stereo not given in full) [stibogluconate] + Oc1nc(-c2ccc(C(F)(F)F)cc2)nc2c1CSCC2 [XAV939] (first compound 2 µM, partner dose 2 µM) | 103 | 97.2 | 86.3 | 91.2 | 108 | 92.1 | 115 | 76.9 | 84 | 107 |
| O=C(O)c1ccc2c(c1)nc(Nc1cccc(Cl)c1)c1ccncc12 + Oc1cc(-c2nc(-c3ccccc3)[nH]c2-c2ccncc2)ccc1Cl [L779450] (first compound 0.4 µM, partner dose 0.2 µM) | 67.1 | 90.1 | 94.7 | 89.3 | 78.7 | 92 | 91.7 | 102 | 77.1 | 68.6 |
| O=C(Nc1cc(C(F)(F)F)cc(C(F)(F)F)c1)c1cc(Cl)ccc1O + CN(NC(=O)CC(=O)NN(C)C(=S)c1ccccc1)C(=S)c1ccccc1 [STA4783] (first compound 0.016 µM, partner dose 0.006 µM) | 97.9 | 103 | 96.4 | 113 | 95.1 | 104 | 84.4 | 96.2 | 88.4 | 92.7 |
| Cn1nnc2c(C(N)=O)ncn2c1=O [temozolomide] + CO[C@@H]1[C@H](N(C)C(=O)c2ccccc2)C[C@H]2O[C@]1(C)n1c3ccccc3c3c4c(c5c6ccccc6n2c5c31)C(=O)NC4 [Midostaurin] (first compound 2 µM, partner dose 0.08 µM) | 99 | 83.7 | 98.3 | 103 | 85.3 | 93.1 | 94.3 | 98.9 | 93.2 | 84.7 |
| O=C(O)c1ccc2c(c1)nc(Nc1cccc(Cl)c1)c1ccncc12 + COC(=O)c1sccc1S(=O)(=O)Nc1ccc(Nc2ccccc2)cc1OC [GSK0660] (first compound 0.4 µM, partner dose 1 µM) | 81.8 | 101 | 93.7 | 121 | 116 | 114 | 98.4 | 121 | 96.7 | 103 |
| O=C(O)[C@@H]1[O][Sb](=[O])([O][Sb]2(=[O])[O][C@H]([C@H](O)CO)[C@H](O)[C@H](C(=O)O)[O]2)[O][C@H]([C@H](O)CO)[C@@H]1O (stereo not given in full) [stibogluconate] + CC(C)(C)c1cnc(CSc2cnc(NC(=O)C3CCNCC3)s2)o1 [SNS-032] (first compound 2 µM, partner dose 0.01 µM) | 98.1 | 96.4 | 98.7 | 74.7 | 85.8 | 97.9 | 108 | 116 | 107 | 93.4 |
| Cn1nnc2c(C(N)=O)ncn2c1=O [temozolomide] + CN(NC(=O)CC(=O)NN(C)C(=S)c1ccccc1)C(=S)c1ccccc1 [STA4783] (first compound 2 µM, partner dose 0.006 µM) | 89.3 | 105 | 87.4 | 110 | 73.1 | 95.6 | 88.3 | 88.6 | 88.1 | 82.9 |
| O=C(O)[C@@H]1[O][Sb](=[O])([O][Sb]2(=[O])[O][C@H]([C@H](O)CO)[C@H](O)[C@H](C(=O)O)[O]2)[O][C@H]([C@H](O)CO)[C@@H]1O (stereo not given in full) [stibogluconate] + COC(=O)c1sccc1S(=O)(=O)Nc1ccc(Nc2ccccc2)cc1OC [GSK0660] (first compound 2 µM, partner dose 1 µM) | 93.4 | 97.4 | 108 | 109 | 93.7 | 92.7 | 98.6 | 110 | 99.8 | 90.7 |
| O=C(O)[C@@H]1[O][Sb](=[O])([O][Sb]2(=[O])[O][C@H]([C@H](O)CO)[C@H](O)[C@H](C(=O)O)[O]2)[O][C@H]([C@H](O)CO)[C@@H]1O (stereo not given in full) [stibogluconate] + O=C(CCCCCCC(=O)Nc1ccccc1)NO [vorinostat] (first compound 2 µM, partner dose 0.08 µM) | 104 | 89.4 | 116 | 112 | 73.6 | 103 | 110 | 107 | 102 | 91.6 |
| O=C(Nc1cc(C(F)(F)F)cc(C(F)(F)F)c1)c1cc(Cl)ccc1O + O=C(Nc1cccc(Cl)c1)Nc1ncc(CCNc2ncnc3ccsc23)s1 [SNS314] (first compound 0.016 µM, partner dose 0.0008 µM) | 102 | 103 | 92.9 | 95.8 | 90.7 | 95.3 | 102 | 81.3 | 81.8 | 86.1 |
| O=C(O)c1ccc2c(c1)nc(Nc1cccc(Cl)c1)c1ccncc12 + COc1cc2c(Oc3ccc4[nH]c(C)cc4c3F)ncnc2cc1OCCCN1CCCC1 [cediranib] (first compound 0.4 µM, partner dose 0.4 µM) | 91.5 | 91.4 | 112 | 116 | 104 | 94.4 | 78.4 | 100 | 104 | 91.6 |
